# Results taken from the supplement of paper PMC4967469.
# Experiments:
# [1] = compound: Nc1[nH]nc2nnc(-c3c(-c4ccccc4)nn4ccccc34)cc12 [FR-180204]; assay: Viability of human cancer cell lines after 72 h of drug (GDSC screen); conditions: top dose 20 µM; top dose inferred
# Description: (§1)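 Human cancer cell lines in 384-well plates, medium with 10% serum, drug for 72 h over a 256-fold dose range (nine 2-fold or five 4-fold steps up to the top dose). Adherent lines were fixed and stained with the nucleic acid dye Syto60, suspension lines read with resazurin; signal relative to control wells, capped at 0 and 100%. One two-parameter sigmoid per drug and line, fitted in a mixed model over all curves with the slope shared within a line.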
# [2] = compound: O=C(/C=C/c1cccnc1)NCCCCC1CCN(C(=O)c2ccccc2)CC1 [FK866]; assay: as above; conditions: top dose 1 µM; top dose inferred
# Description: as §1
Cell Line,AUC [1],IC50 [1],AUC [2],IC50 [2]
"MES-SA (uterus, adherent)",0.99,> 20000 nM,0.991,> 1000 nM
"MFE-280 (endometrium, adherent)",0.953,> 20000 nM,0.058,< 3.91 nM
"MFE-296 (endometrium, adherent)",0.982,> 20000 nM,0.191,6.85 nM
"MFE-319 (endometrium, adherent)",0.986,> 20000 nM,0.421,38.3 nM
"MFH-ino (soft tissue, adherent)",0.976,> 20000 nM,0.201,6.73 nM
"MFM-223 (breast, adherent)",0.989,> 20000 nM,0.197,8 nM
"MG-63 (osteosarcoma, adherent)",0.982,> 20000 nM,0.107,< 3.91 nM
"MHH-ES-1 (Ewing sarcoma, adherent)",0.937,> 20000 nM,0.049,< 3.91 nM
"MHH-PREB-1 (B-cell leukaemia, suspension)",0.927,> 20000 nM,0.023,< 3.91 nM
"MKN1 (stomach, adherent)",0.979,> 20000 nM,0.516,69.2 nM
"MKN45 (stomach, adherent)",0.983,> 20000 nM,0.336,19.3 nM
"ML-1 (thyroid, adherent)",0.973,> 20000 nM,0.937,> 1000 nM
"MLMA (hairy cell leukaemia, semi-adherent)",0.886,> 20000 nM,0.981,> 1000 nM
"MMAC-SF (melanoma, adherent)",0.984,> 20000 nM,0.506,65 nM
"MN-60 (B-cell leukaemia, suspension)",0.982,> 20000 nM,0.056,< 3.91 nM
"MOG-G-CCM (glioma, adherent)",0.982,> 20000 nM,0.952,> 1000 nM
"MOG-G-UVW (glioma, adherent)",0.987,> 20000 nM,0.07,< 3.91 nM
"MOLM-13 (acute myeloid leukaemia, suspension)",0.755,6410 nM,0.052,< 3.91 nM
"MOLP-8 (myeloma, suspension)",0.91,> 20000 nM,0.063,< 3.91 nM
"MOLT-4 (lymphoblastic leukaemia, suspension)",0.974,> 20000 nM,0.029,< 3.91 nM
"MOLT-13 (T-cell lymphoblastic leukaemia, suspension)",0.948,> 20000 nM,0.047,< 3.91 nM
"MONO-MAC-6 (acute myeloid leukaemia, suspension)",0.914,> 20000 nM,0.071,< 3.91 nM
"MPP-89 (mesothelioma, adherent)",0.975,> 20000 nM,0.846,> 1000 nM

Cell Line,AUC [1],IC50 [1],AUC [2],IC50 [2]
"MRK-nu-1 (breast, suspension)",0.986,> 20000 nM,0.343,23.9 nM
"MS751 (cervix, adherent)",0.99,> 20000 nM,0.788,402 nM
"MS-1 (small cell lung carcinoma, suspension)",0.975,> 20000 nM,0.064,< 3.91 nM
"MV-4-11 (leukaemia, suspension)",0.897,17000 nM,0.032,< 3.91 nM
"MZ1-PC (pancreas, adherent)",0.868,> 20000 nM,0.729,332 nM
"MZ2-MEL (melanoma, adherent)",0.961,> 20000 nM,0.355,23.1 nM
"MZ7-mel (melanoma, adherent)",0.863,18300 nM,0.898,> 1000 nM
"Mewo (melanoma, adherent)",0.983,> 20000 nM,0.452,44.9 nM
"Mo-T (hairy cell leukaemia, suspension)",0.957,> 20000 nM,0.849,772 nM
"NAMALWA (Burkitt lymphoma, suspension)",0.989,> 20000 nM,0.023,< 3.91 nM
"NB1 (neuroblastoma, semi-adherent)",0.928,> 20000 nM,0.138,< 3.91 nM
"NB5 (neuroblastoma, adherent)",0.892,> 20000 nM,0.039,< 3.91 nM
"NB6 (neuroblastoma, adherent)",0.979,> 20000 nM,0.908,> 1000 nM
"NB7 (neuroblastoma, adherent)",0.984,> 20000 nM,0.463,49.2 nM
"NB10 (neuroblastoma, adherent)",0.979,> 20000 nM,0.028,< 3.91 nM
"NB12 (neuroblastoma, adherent)",0.958,> 20000 nM,0.579,111 nM
"NB13 (neuroblastoma, adherent)",0.973,> 20000 nM,0.042,< 3.91 nM
"NB(TU)1-10 (neuroblastoma, adherent)",0.92,> 20000 nM,0.161,7.03 nM
"NB-4 (acute myeloid leukaemia, suspension)",0.918,> 20000 nM,0.017,< 3.91 nM
"NCC021 (kidney, adherent)",0.967,> 20000 nM,0.97,> 1000 nM
"NCI-H23 (lung adenocarcinoma, adherent)",0.988,> 20000 nM,0.22,9.59 nM
"NCI-H28 (mesothelioma, adherent)",0.971,> 20000 nM,0.852,> 1000 nM
"NCI-H69 (small cell lung carcinoma, suspension)",0.984,> 20000 nM,0.149,4.34 nM

Cell Line,AUC [1],IC50 [1],AUC [2],IC50 [2]
"NCI-H187 (small cell lung carcinoma, suspension)",0.988,> 20000 nM,0.983,> 1000 nM
"NCI-H196 (small cell lung carcinoma, adherent)",0.988,> 20000 nM,0.935,> 1000 nM
"NCI-H209 (small cell lung carcinoma, suspension)",0.969,> 20000 nM,0.064,< 3.91 nM
"NCI-H211 (small cell lung carcinoma, adherent)",0.944,> 20000 nM,0.057,< 3.91 nM
"NCI-H226 (lung squamous cell carcinoma, adherent)",0.959,> 20000 nM,0.935,> 1000 nM
"NCI-H292 (lung adenocarcinoma, adherent)",0.868,> 20000 nM,0.274,12.3 nM
"NCI-H322M (lung adenocarcinoma, suspension)",0.979,> 20000 nM,0.283,12.9 nM
"NCI-H345 (small cell lung carcinoma, suspension)",0.988,> 20000 nM,0.532,76.7 nM
"NCI-H358 (lung adenocarcinoma, adherent)",0.902,> 20000 nM,0.887,> 1000 nM
"NCI-H441 (lung adenocarcinoma, adherent)",0.978,> 20000 nM,0.833,> 1000 nM
"NCI-H446 (small cell lung carcinoma, semi-adherent)",0.982,> 20000 nM,0.046,< 3.91 nM
"NCI-H460 (large cell lung carcinoma, adherent)",0.988,> 20000 nM,0.377,29.8 nM
"NCI-H520 (lung squamous cell carcinoma, adherent)",0.974,> 20000 nM,0.461,48.6 nM
"NCI-H522 (lung adenocarcinoma, adherent)",0.953,> 20000 nM,0.753,391 nM
"NCI-H524 (small cell lung carcinoma, suspension)",0.991,> 20000 nM,0.023,< 3.91 nM
"NCI-H526 (small cell lung carcinoma, suspension)",0.979,> 20000 nM,0.232,10.9 nM
"NCI-H596 (lung adenocarcinoma, adherent)",0.981,> 20000 nM,0.549,88.6 nM
"NCI-H630 (large intestine, adherent)",0.964,> 20000 nM,0.877,> 1000 nM
"NCI-H650 (lung adenocarcinoma, adherent)",0.981,> 20000 nM,0.978,> 1000 nM
"NCI-H661 (large cell lung carcinoma, adherent)",0.972,> 20000 nM,0.627,151 nM
"NCI-H716 (large intestine, suspension)",0.972,> 20000 nM,0.091,< 3.91 nM
"NCI-H720 (lung carcinoid, suspension)",0.987,> 20000 nM,0.153,6.09 nM
"NCI-H727 (lung carcinoid, adherent)",0.949,> 20000 nM,0.947,> 1000 nM

Cell Line,AUC [1],IC50 [1],AUC [2],IC50 [2]
"NCI-H747 (large intestine, adherent)",0.934,> 20000 nM,0.588,115 nM
"NCI-H810 (large cell lung carcinoma, adherent)",0.958,> 20000 nM,0.05,< 3.91 nM
"NCI-H838 (lung adenocarcinoma, adherent)",0.983,> 20000 nM,0.131,3.94 nM
"NCI-H841 (small cell lung carcinoma, adherent)",0.983,> 20000 nM,0.836,665 nM
"NCI-H847 (small cell lung carcinoma, adherent)",0.974,> 20000 nM,0.992,> 1000 nM
"NCI-H1048 (small cell lung carcinoma, adherent)",0.945,> 20000 nM,0.162,6.72 nM
"NCI-H1092 (small cell lung carcinoma, suspension)",0.977,> 20000 nM,0.141,4.62 nM
"NCI-H1155 (large cell lung carcinoma, suspension)",0.993,> 20000 nM,0.021,< 3.91 nM
"NCI-H1299 (large cell lung carcinoma, adherent)",0.932,> 20000 nM,0.81,681 nM
"NCI-H1304 (small cell lung carcinoma, suspension)",0.985,> 20000 nM,0.96,> 1000 nM
"NCI-H1355 (lung adenocarcinoma, adherent)",0.977,> 20000 nM,0.546,88.4 nM
"NCI-H1395 (lung adenocarcinoma, adherent)",0.979,> 20000 nM,0.847,> 1000 nM
"NCI-H1417 (small cell lung carcinoma, suspension)",0.972,> 20000 nM,0.108,< 3.91 nM
"NCI-H1435 (lung adenocarcinoma, semi-adherent)",0.992,> 20000 nM,0.481,55.9 nM
"NCI-H1436 (small cell lung carcinoma, suspension)",0.969,> 20000 nM,0.06,< 3.91 nM
"NCI-H1437 (lung adenocarcinoma, adherent)",0.984,> 20000 nM,0.697,230 nM
"NCI-H1563 (lung adenocarcinoma, adherent)",0.947,> 20000 nM,0.964,> 1000 nM
"NCI-H1568 (lung adenocarcinoma, adherent)",0.958,> 20000 nM,0.841,967 nM
"NCI-H1573 (lung adenocarcinoma, adherent)",0.983,> 20000 nM,0.966,> 1000 nM
"NCI-H1581 (large cell lung carcinoma, semi-adherent)",0.986,> 20000 nM,0.299,18 nM

# By IC50 is meant the dose at which the fit gives 50% viability; a limit (>, <) means that the fit lies beyond the doses tested. For AUC the same curve is integrated over the 256-fold range of doses and scaled to a fraction; values near 1 show little effect. The top dose, if marked as inferred, comes from the curve model; the source does not state it.
